The supplement of paper PMC6135742
“And” between values parts separate entries of the source, which are not always exact repeats. Equal entries are not always repeated. Structures can show the parent of a compound that is named as a salt. ± gives the standard deviation of the averaged measurements. Over roughly 2,600 compounds, “MBP+ mature oligodendrocyte number relative to DMSO vehicle control” has its median near -0.34; the highest 2% begin near 13. The list shows a part of the results.

Each compound was assayed on jimpy (Plp1 jimpy) mouse iPSC-derived oligodendrocyte progenitor cells (assay: MBP+ mature oligodendrocyte number relative to DMSO vehicle control (SDs above negative control mean); higher = more surviving jimpy oligodendrocytes (rescue)). Settings: 10 µM; 3 days.
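Further: 10 µM single dose with 3-day oligodendrocyte differentiation.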

Structure (SMILES)	MBP+ mature oligodendrocyte number
COc1cc(/C=C/C(=O)N2CCN(CC(=O)N3CCCC3)CC2)cc(OC)c1OC [Cinepazide maleate]	2.64
CCCCCCCCCCCCCCCCCCOP(=O)([O-])OC1CC[N+](C)(C)CC1 [Perifosine]	-0.323
O=C(Nc1ccc(OC(F)(F)F)cc1)c1sccc1NCc1ccnc2ccccc12	7.18
CC(=O)c1ccc(S(=O)(=O)NC(=O)NC2CCCCC2)cc1 [Acetohexamide]	0.47
CCSC(=N)N [S-Ethylisothiourea hydrobromide]	0.241
CCOC(=O)c1ccc(OC(=O)CCCCCNC(=N)N)cc1 [Gabexate Mesylate]	1.12
OC[C@H]1O[C@H]([S-])[C@H](O)[C@@H](O)[C@@H]1O.[Au+] [Aurothioglucose]	-1.73
CC(C)(C)Cn1c(N)nc2ccc(-c3[nH]c(C(C)(C)C)nc3-c3ccc(F)cc3)nc21	-4.16
CCCN[C@H]1CCc2nc(N)sc2C1 [Pramipexole]	1.18
CCCN[C@H]1CCc2nc(N)sc2C1 [Pramipexole dihydrochloride]	1.22
CCC(=O)N1CCN(C(=O)c2ccccc2)CC1	-0.125
CNC(=O)c1cc2c(cn1)[nH]c1ccccc12 [N-Methyl-beta-carboline-3-carboxamide]	2.18
Cc1cc(=O)oc2cc(O)ccc12 [4-Methylumbelliferone (4-MU)]	1.79
Cn1c(=O)c2nc[nH]c2n(C)c1=O [Theophylline]	0.146
CCCCCCCCCCCCCCCC(=O)OC[C@H](COP(=O)(O)OCCNC(=O)[C@H](C)NC(=O)CC[C@@H](NC(=O)[C@H](C)NC(=O)[C@@H](C)O[C@H]1[C@H](O)[C@@H](CO)OC(O)[C@@H]1NC(C)=O)C(N)=O)OC(=O)CCCCCCCCCCCCCCC (some centres undefined) [Mifamurtide]	-0.284
C=C1c2cccc(O)c2C(=O)C2=C(O)[C@]3(O)C(=O)C(C(N)=O)=C(O)[C@@H](N(C)C)[C@@H]3[C@@H](O)[C@H]12 [Methacycline HCl]	2.24
c1ccc(C2CN3CCSC3=N2)cc1 (centres undefined) [Tetramisole hydrochloride]	1.65
Cc1scc2c1N(C(=O)CN1CCN(C)CC1)c1ccccc1NC2=O [Telenzepine dihydrochloride]	0.824
Cn1c(=O)cc(N2CCC[C@@H](N)C2)n(Cc2cc(F)ccc2C#N)c1=O [Trelagliptin]	1.71
CN(C)CCC(c1ccc(Cl)cc1)c1ccccn1 (single isomer, unassigned; (+)) [(+)-Chlorpheniramine maleate]	-1.61
O=c1cc(-c2ccc(O)cc2)oc2cc(O)cc(O)c12 [Apigenin]	-0.504 ± 2.2
CO[C@H]1/C=C/O[C@@]2(C)Oc3c(C)c(O)c4c(c3C2=O)C2=NC3(CCN(CC(C)C)CC3)NC2=C(NC(=O)/C(C)=C\C=C\[C@H](C)[C@H](O)[C@@H](C)[C@@H](O)[C@@H](C)[C@H](OC(C)=O)[C@@H]1C)C4=O [Rifabutin]	-4.25
C[C@@H](N)[C@H]1CC[C@H](C(=O)Nc2ccncc2)CC1	-2.68 and -2.11
c1cnc2cc3c(cc2n1)[C@@H]1CNC[C@H]3C1 [Varenicline tartrate]	-0.511
c1cnc2cc3c(cc2n1)[C@@H]1CNC[C@H]3C1 [Varenicline Tartrate]	1.33
CCCCCN(CCCOC)C(=O)C(CCC(=O)O)NC(=O)c1ccc(Cl)c(Cl)c1 (centres undefined) [Loxiglumide]	-0.805
O=C(CCCCCCNC(=O)c1cnc(N(c2ccccc2)c2ccccc2)nc1)NO [Rocilinostat (ACY-1215)]	-4.64

Structure (SMILES)	MBP+ mature oligodendrocyte number
O=c1ncccn1[C@@H]1O[C@H](CO)[C@@H](O)[C@H]1O [Zebularine]	1.67
CN(C)CCN(Cc1cccs1)c1ccccn1 [Methapyrilene hydrochloride]	0.382
NC(CO)(CO)CO [Trometamol]	1.5
COc1ccccc1CNC1CCCNC1c1ccccc1 (centres undefined)	-1.71
Clc1ccc(C(Cn2ccnc2)OCc2c(Cl)cccc2Cl)c(Cl)c1 (centres undefined) [Isoconazole nitrate]	22.9
CCOC(=O)C1=C(C)NC(C)=C(C(=O)OCC)C1c1c(F)c(F)c(F)c(F)c1F [Nemadipine-A]	2.34
CC(C)n1nc(-c2cc3cc(O)ccc3[nH]2)c2c(N)ncnc21	< -4.81
NC(=O)N1c2ccccc2C=Cc2ccccc21 [Carbamazepine]	1.4 ± 1.3
CCc1cccc(N(C)C(=N)Nc2cccc3ccccc23)c1	-2.04
CC[C@H]1OC(=O)[C@H](C)[C@@H](O[C@H]2C[C@@](C)(OC)[C@@H](O)[C@H](C)O2)[C@H](C)[C@@H](O[C@@H]2O[C@H](C)C[C@H](N(C)C)[C@H]2O)[C@](C)(O)C[C@@H](C)/C(=N\OCOCCOC)[C@H](C)[C@@H](O)[C@]1(C)O [Roxithromycin]	-1.56
O=C1NC(=O)[C@@]2(CCOc3ccc(F)cc32)N1 [Sorbinil]	1.77
C=C1CC[C@H](O)C/C1=C/C=C1\CCC[C@]2(C)[C@@H]([C@H](C)CCCC(C)(C)O)CC[C@@H]12 [Calcifediol]	3.34
CC(C)CC(=O)Nc1n[nH]c2c1CN(C(=O)C1CCN(C)CC1)C2(C)C	< -5.15
O=C(NCCS(=O)(=O)c1ccc(C(F)(F)F)cn1)c1ccc(Cl)cc1	3.27
CC(N)=O [Acetamide]	0.902
CN1CC[C@H](c2c(O)cc(O)c3c(=O)cc(-c4ccccc4Cl)oc23)[C@H](O)C1 [Flavopiridol HCl]	< -6.01
COc1ccc(-c2cc(=O)c3c(O)cc(O)cc3o2)cc1O [Diosmetin]	-1.95
Nc1nc(Cl)nc2c1ncn2[C@@H]1O[C@H](CO)[C@@H](O)[C@@H]1F [Clofarabine]	< -6.7
O=C1CN2Cc3c(ccc(Cl)c3Cl)N=C2N1 [Anagrelide HCl]	2.25
CC(N)(C(=O)O)c1ccc(C(=O)O)cc1 (racemic) [(±)-alpha-Methyl-4-carboxyphenylglycine]	-1.03
CN(C)Cc1c(C(=O)NCCOc2ccc(C(=O)NO)cc2)oc2ccccc12	< -6.7
CC(C)NCC(O)COc1ccc(COCCOC(C)C)cc1 (centres undefined) [Bisoprolol fumarate]	< -6.7
CC(C)NCC(O)COc1ccc(COCCOC(C)C)cc1 (centres undefined) [Bisoprolol hemifumarate salt]	-0.0098
CN1C2CCCC1CC(NC(=O)c1nn(C)c3ccccc13)C2 (centres undefined) [Granisetron HCl]	0.196
CN1C2CCCC1CC(NC(=O)c1nn(C)c3ccccc13)C2 (centres undefined) [Granisetron hydrochloride]	0.324
N=C(N)c1ccccc1 [Benzamidine hydrochloride]	-0.708
CCCCCc1ccc(/C=C/C(=O)Nc2cc(Cl)ccc2C(=O)O)cc1	0.0686

Structure (SMILES)	MBP+ mature oligodendrocyte number
CCN(Cc1ccncc1)C(=O)C(CO)c1ccccc1 (centres undefined) [Tropicamide]	-0.244 ± 1.5
OC(CCN1CCCCC1)(c1ccccc1)C1CC2C=CC1C2 (centres undefined) [Biperiden hydrochloride]	2.59
OC(CCN1CCCCC1)(c1ccccc1)C1CC2C=CC1C2 (centres undefined) [Biperiden HCl]	13.7
Cc1ncc([N+](=O)[O-])n1CCO [Metronidazole]	0.523
CCN(CC)CC#CCOC(=O)C(O)(c1ccccc1)C1CCCCC1 (centres undefined) [Oxybutynin Chloride]	13.5
CCN(CC)CC#CCOC(=O)C(O)(c1ccccc1)C1CCCCC1 (centres undefined) [Oxybutynin chloride]	29.7
CC(=O)O/N=C1\C(=O)N(Cc2cc(Cl)ccc2Cl)c2ccc(Cl)cc21	5.56
COc1ccc(COc2ccc(Cc3cnc(N)nc3N)cc2OC)cc1	4.11
COc1ccc(C(=O)NCc2cccnc2)cc1C(=O)NCc1cccnc1 [Picotamide]	1.07
CC(C)c1cccc(C(C)C)c1N1C(=O)c2ccc(O)cc2C1=O	0.61
COC(=O)C1=C(C)NC(C)=C(C(=O)OC)C1c1cccc(NC(=O)NCCCN2CCC(c3cccc(OC)c3)CC2)c1	< -3.85
C=CC[C@@H]1/C=C(\C)C[C@H](C)C[C@H](OC)[C@H]2O[C@@](O)(C(=O)C(=O)N3CCCC[C@H]3C(=O)O[C@H](/C(C)=C/[C@@H]3CC[C@@H](O)[C@H](OC)C3)[C@H](C)[C@@H](O)CC1=O)[C@H](C)C[C@@H]2OC [Tacrolimus (FK506)]	4.88
O=C(N/N=C/c1ccc(O)c(O)c1)c1cc2ccccc2cc1O [Dynasore]	-3.68
Cc1ccc(C(=O)c2cc(O)c(O)c([N+](=O)[O-])c2)cc1 [Tolcapone]	5.14
O=C([O-])c1ccccc1O.[Na+] [Sodium salicylate]	0.819
COc1ccc2[nH]cc(CCNC(C)=O)c2c1 [Melatonin]	-1.02 ± 0.38
CCCCS(=O)(=O)N[C@@H](Cc1ccc(OCCCCC2CCNCC2)cc1)C(=O)O [Tirofiban hydrochloride monohydrate]	-0.354
O=C(Nc1cc(C(F)(F)F)ccc1N1CCCCC1)c1ccncc1	0.829
COc1cc2nc(N3CCN(C(=O)c4ccco4)CC3)nc(N)c2cc1OC [Prazosin HCl]	< -6.7
COc1cc2nc(N3CCN(C(=O)c4ccco4)CC3)nc(N)c2cc1OC [Prazosin hydrochloride]	< -3.85
NCCS(=O)(=O)O [Taurine]	1.29
N#CC(C#N)=C(N)/C(C#N)=C/c1ccc(O)cc1 [Tyrphostin AG 112]	-0.14
Cc1ccc(NC(=O)c2ccc(CN3CCN(C)CC3)cc2)cc1Nc1nc(-c2cccnc2)cs1 [Masitinib (AB1010)]	-6.26
COc1nc(C)nc(Cl)c1NC1=NCCN1 [Moxonidine hydrochloride]	-0.167
COc1nc(C)nc(Cl)c1NC1=NCCN1 [Moxonidine]	-0.377
